These results are taken from the supplement of paper PMC4604168 (melanoma cell lines).

Common to all, as to test: cell count relative to DMSO control; melanoma cells; higher = more viable cells
Common to all, as to settings: library dose: standard library concentration; 72 h

In assay [1] the test system is 501Mel.
The subject of assay [2] is A101D.
Assay [3] relates to A2058.
Assay [4] deals with A375.

The other results are listed elsewhere or left out. Most values come without repeats; read them as rough.
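Further: cells treated in 1,536-well plates, then fixed and DAPI-stained, with nuclei counted from automated high-throughput microscope images.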

`CC1(C)NC(=O)N(c2ccc([N+](=O)[O-])c(C(F)(F)F)c2)C1=O` [nilutamide] + O=C(O)C(=O)Nc1sc2c(c1C(=O)O)CCNC2 [TCS401] (first compound 5 µM, partner dose 8.33333 µM): the cell count in assay [1] came out at 87%; in assay [2] it was 102%; in assay [3] it was 101%; in assay [4], 111%.
On to `COc1cc(Nc2ncc(F)c(Nc3ccc4c(n3)NC(=O)C(C)(C)O4)n2)cc(OC)c1OC` [Tamatinib] + O=C1NC(=O)/C(=C/c2ccc(-c3ccc(F)cc3O)o2)S1 [AS252424] (first compound 2 µM, partner dose 5 µM), for which the cell count worked out at 65.8% in assay [1], 45.3% in assay [2], 80.3% in assay [3] and 103% in assay [4].
On the same counts, the results for `CC1(C)NC(=O)N(c2ccc([N+](=O)[O-])c(C(F)(F)F)c2)C1=O` [nilutamide] + O=c1cc(-c2cccc3c2Sc2ccccc2S3)oc(N2CCOCC2)c1 [KU55933] (first compound 5 µM, partner dose 5 µM) are 91.4%, 98.6%, 113% and 101%.
The corresponding values for `COc1cc(Nc2ncc(F)c(Nc3ccc4c(n3)NC(=O)C(C)(C)O4)n2)cc(OC)c1OC` [Tamatinib] + CCN(CC)CCCCNc1ncc2cc(-c3cc(OC)cc(OC)c3)c(NC(=O)NC(C)(C)C)nc2n1 [PD173074] (first compound 2 µM, partner dose 0.5 µM) are 83.7%, 27.1%, 71% and 122%.
The corresponding values for `COc1cc(Nc2ncc(F)c(Nc3ccc4c(n3)NC(=O)C(C)(C)O4)n2)cc(OC)c1OC` [Tamatinib] + Cc1cc([N+](=O)[O-])ccc1NS(=O)(=O)c1cc(Cl)ccc1Cl [FH535] (first compound 2 µM, partner dose 5 µM) are 64.7%, 47.8%, 55.2% and 91.3%.
For the molecule `C[C@@H]1CCN(C(=O)CC#N)C[C@@H]1N(C)c1ncnc2[nH]ccc12` + O=C(O)C(=O)Nc1sc2c(c1C(=O)O)CCNC2 [TCS401] (first compound 5 µM, partner dose 8.33333 µM), the cell count in assay [1] amounted to 115%; in assay [2], 96.8%; in assay [3], 107%; in assay [4], 186%.
On the same counts, the results for `Cn1cncc1[C@@](N)(c1ccc(Cl)cc1)c1ccc2c(c1)c(-c1cccc(Cl)c1)cc(=O)n2C` [tipifarnib] + Cc1cc([N+](=O)[O-])ccc1NS(=O)(=O)c1cc(Cl)ccc1Cl [FH535] (first compound 0.05 µM, partner dose 5 µM) are 79.3%, 68%, 64% and 66.8%.
Take `O=C(O)c1ccc(-c2c[nH]c3ncc(-c4ccccc4)cc23)cc1C1CCCC1` + COC(=O)c1sccc1S(=O)(=O)Nc1ccc(Nc2ccccc2)cc1OC [GSK0660] (first compound 0.8 µM, partner dose 5 µM): the cell count in assay [1] turned out to be 90.4%; in assay [2], 90.2%; in assay [3], 110%; in assay [4], 115%.
The corresponding values for `O=C(O)c1ccc(-c2c[nH]c3ncc(-c4ccccc4)cc23)cc1C1CCCC1` + O=C(Nc1ccccc1)c1cc([N+](=O)[O-])ccc1Cl [GW9662] (first compound 0.8 µM, partner dose 10 µM) are 78.9%, 72.9%, 102% and 116%.
The corresponding values for `COc1cc(Nc2ncc(F)c(Nc3ccc4c(n3)NC(=O)C(C)(C)O4)n2)cc(OC)c1OC` [Tamatinib] + CCCCCCCCCCCC1=C(O)C(=O)C=C(O)C1=O [Embelin] (first compound 2 µM, partner dose 6 µM) are 66.2%, 63%, 67.9% and 124%.
The corresponding values for `Cn1cncc1[C@@](N)(c1ccc(Cl)cc1)c1ccc2c(c1)c(-c1cccc(Cl)c1)cc(=O)n2C` [tipifarnib] + COC(=O)c1sccc1S(=O)(=O)Nc1ccc(Nc2ccccc2)cc1OC [GSK0660] (first compound 0.05 µM, partner dose 5 µM) are 92.9%, 93.3%, 72.4% and 100%.
Regarding `O=C(O)c1ccc(-c2c[nH]c3ncc(-c4ccccc4)cc23)cc1C1CCCC1` + O=C(O)C(=O)Nc1sc2c(c1C(=O)O)CCNC2 [TCS401] (first compound 0.8 µM, partner dose 8.33333 µM), the cell count in assay [1] was 70%; in assay [2] it was 104%; in assay [3], 92.4%; in assay [4], 160%.
On the same counts, the results for `Cn1cncc1[C@@](N)(c1ccc(Cl)cc1)c1ccc2c(c1)c(-c1cccc(Cl)c1)cc(=O)n2C` [tipifarnib] + c1cc(-c2cnn3cc(-c4ccc(OCCN5CCCCC5)cc4)cnc23)ccn1 [Dorsomorphin] (first compound 0.05 µM, partner dose 2 µM) are 49.4%, 61.2%, 67.3% and 61.7%.
Regarding `O=c1[nH]nc(Sc2ncc([N+](=O)[O-])s2)n1-c1ccc2c(c1)OCCO2` + COc1cc(N2CCC(N3CCN(C)CC3)CC2)ccc1Nc1ncc(Cl)c(Nc2ccccc2S(=O)(=O)C(C)C)n1 [NVP-TAE684] (first compound 1 µM, partner dose 0.4 µM), the cell count in assay [1] is 82.4%; in assay [2], 78.3%; in assay [3], 77.2%; in assay [4], 94.6%.
Consider `O=C(Nc1cccc(Cl)c1)Nc1ncc(CCNc2ncnc3ccsc23)s1` + O=C1NC(=O)/C(=C/c2ccc(-c3ccc(F)cc3O)o2)S1 [AS252424] (first compound 0.004 µM, partner dose 5 µM), for which the cell count turned out to be 80.6% in assay [1], 80.8% in assay [2], 102% in assay [3] and 134% in assay [4].
On to `O=C(O)c1ccc(-c2c[nH]c3ncc(-c4ccccc4)cc23)cc1C1CCCC1` + COc1ccc(-c2ccc3c(N4CCOCC4)nc(N4C[C@@H](C)O[C@@H](C)C4)nc3n2)cc1CO [KU0063794] (first compound 0.8 µM, partner dose 0.1 µM), for which the cell count in assay [1] is 59.5%; in assay [2], 76.7%; in assay [3], 89.1%; in assay [4], 72.8%.
Take `O=C(Nc1cccc(Cl)c1)Nc1ncc(CCNc2ncnc3ccsc23)s1` + CCCCCCCCCCCC1=C(O)C(=O)C=C(O)C1=O [Embelin] (first compound 0.004 µM, partner dose 6 µM): the cell count is 92% in assay [1], 70.2% in assay [2], 68.5% in assay [3] and 107% in assay [4].
`C[C@@H]1CCN(C(=O)CC#N)C[C@@H]1N(C)c1ncnc2[nH]ccc12` + Oc1nc(-c2ccc(C(F)(F)F)cc2)nc2c1CSCC2 [XAV939] (first compound 5 µM, partner dose 10 µM): the cell count came out at 83.1% in assay [1], 95.8% in assay [2], 81.7% in assay [3] and 86% in assay [4].
On the same counts, the results for `COc1cc(Nc2ncc(F)c(Nc3ccc4c(n3)NC(=O)C(C)(C)O4)n2)cc(OC)c1OC` [Tamatinib] + c1cc(-c2cnn3cc(-c4ccc(OCCN5CCCCC5)cc4)cnc23)ccn1 [Dorsomorphin] (first compound 2 µM, partner dose 2 µM) are 69.3%, 47.1%, 49.8% and 60%.
On the same counts, the results for `O=C(Nc1cccc(Cl)c1)Nc1ncc(CCNc2ncnc3ccsc23)s1` + CCc1ccc(CCOc2ccc(CC3SC(=O)NC3=O)cc2)nc1 [pioglitazone] (first compound 0.004 µM, partner dose 10 µM) are 77.1%, 73%, 97.9% and 122%.
Take `Cn1cncc1[C@@](N)(c1ccc(Cl)cc1)c1ccc2c(c1)c(-c1cccc(Cl)c1)cc(=O)n2C` [tipifarnib] + COc1ccc2c(c1)CCC1C2CCC2(C)C(NCCCCCCN3C(=O)C=CC3=O)CCC12 [U73122] (first compound 0.05 µM, partner dose 2 µM): the cell count in assay [1] came to 88.6%; in assay [2] it was 34.6%; in assay [3], 58.1%; in assay [4], 91.4%.
The corresponding values for `COc1cc(Nc2ncc(F)c(Nc3ccc4c(n3)NC(=O)C(C)(C)O4)n2)cc(OC)c1OC` [Tamatinib] + Oc1nc(-c2ccc(C(F)(F)F)cc2)nc2c1CSCC2 [XAV939] (first compound 2 µM, partner dose 10 µM) are 75.4%, 54.1%, 75.6% and 113%.
Take `Cn1cncc1[C@@](N)(c1ccc(Cl)cc1)c1ccc2c(c1)c(-c1cccc(Cl)c1)cc(=O)n2C` [tipifarnib] + O=C(Nc1ccccc1)c1cc([N+](=O)[O-])ccc1Cl [GW9662] (first compound 0.05 µM, partner dose 10 µM): the cell count in assay [1] was 50.4%; in assay [2], 72.2%; in assay [3] it was 92.6%; in assay [4], 102%.
On the same counts, the results for `Cn1cncc1[C@@](N)(c1ccc(Cl)cc1)c1ccc2c(c1)c(-c1cccc(Cl)c1)cc(=O)n2C` [tipifarnib] + CCCCCCCCCCCC1=C(O)C(=O)C=C(O)C1=O [Embelin] (first compound 0.05 µM, partner dose 6 µM) are 85.8%, 79.6%, 92.6% and 88.6%.
With `CC1(C)NC(=O)N(c2ccc([N+](=O)[O-])c(C(F)(F)F)c2)C1=O` [nilutamide] + COC(=O)c1sccc1S(=O)(=O)Nc1ccc(Nc2ccccc2)cc1OC [GSK0660] (first compound 5 µM, partner dose 5 µM), the cell count in assay [1] was found to be 90.3%; in assay [2], 122%; in assay [3] it was 90.4%; in assay [4], 83.9%.
The corresponding values for `CC1(C)NC(=O)N(c2ccc([N+](=O)[O-])c(C(F)(F)F)c2)C1=O` [nilutamide] + COc1ccc(COc2ccc(Cc3cnc(N)nc3N)cc2OC)cc1 [GW2580] (first compound 5 µM, partner dose 5 µM) are 85.7%, 94.1%, 100% and 82.4%.
In the case of `CC1(C)NC(=O)N(c2ccc([N+](=O)[O-])c(C(F)(F)F)c2)C1=O` [nilutamide] + COc1cc(N2CCC(N3CCN(C)CC3)CC2)ccc1Nc1ncc(Cl)c(Nc2ccccc2S(=O)(=O)C(C)C)n1 [NVP-TAE684] (first compound 5 µM, partner dose 0.4 µM), the cell count turned out to be 75% in assay [1], 91.4% in assay [2], 64.8% in assay [3] and 77.4% in assay [4].
On the same counts, the results for `O=c1[nH]nc(Sc2ncc([N+](=O)[O-])s2)n1-c1ccc2c(c1)OCCO2` + O=S(=O)(c1ccccc1)N(CC(F)(F)F)c1ccc(C(O)(C(F)(F)F)C(F)(F)F)cc1 [T0901317] (first compound 1 µM, partner dose 7 µM) are 62.8%, 85.3%, 107% and 83%.
Turning to `Cn1cncc1[C@@](N)(c1ccc(Cl)cc1)c1ccc2c(c1)c(-c1cccc(Cl)c1)cc(=O)n2C` [tipifarnib] + O=S(=O)(c1ccccc1)N(CC(F)(F)F)c1ccc(C(O)(C(F)(F)F)C(F)(F)F)cc1 [T0901317] (first compound 0.05 µM, partner dose 7 µM), the cell count came out at 67.6% in assay [1], 90.1% in assay [2], 87.6% in assay [3] and 101% in assay [4].
